For 22 molecules, binding signal results are on record in publication PMC12136788.

The other results are listed elsewhere or left out.

Sequences and labels used below:
T1: UNK ZnF1-6 (called full-length) (human, UniProt Q9C0B0 30-357)
T1 sequence: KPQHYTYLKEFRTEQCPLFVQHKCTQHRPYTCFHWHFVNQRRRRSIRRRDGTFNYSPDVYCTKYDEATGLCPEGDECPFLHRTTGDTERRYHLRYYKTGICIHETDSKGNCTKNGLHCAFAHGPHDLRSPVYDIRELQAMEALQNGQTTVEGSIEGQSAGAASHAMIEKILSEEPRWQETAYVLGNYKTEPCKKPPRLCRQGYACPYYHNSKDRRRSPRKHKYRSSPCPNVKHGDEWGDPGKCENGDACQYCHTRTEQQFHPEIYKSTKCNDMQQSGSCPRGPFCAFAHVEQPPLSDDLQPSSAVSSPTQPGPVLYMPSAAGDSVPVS

B1: chr11:119045269:119045370:-|3pUTR|ENSG00000149428|msi1|total|mutant (ssRNA)
RNA: GGGAGUUCUACAGUCCGACGAUCUGUGGUUAAAAAUGGAAACUGUUCUCCUCCCCAGCCCCACUCCCUGUUCCCUACCCAUACCGGCCCUAAAUUUGGGAAAAAUCACUAUUAAUUUCUGAAUCCUUUGCCUGUGGGCCGGAACAACAGAGGAUUGAGCAUCA
B2: ENSG00000124766:be:win_1951|3pUTR|ENSG00000124766|bound_else_gene|NA|bound_elsewhere_windowed (ssRNA)
RNA: GGGAGUUCUACAGUCCGACGAUCCCCCCCUUUUUUUAAACGCGUGAUGAAGACAGAAGGCUCCGGGGUGACGAAUUUGGCCGAUGGCAGAUGUUUUGGGGGAACGCCGGGACUGAGAGACUCCACGCAGGCGAAUUCCCGUUUCAACAGAGGAUUGAGCAUCA
B3: chr2:149026443:149026544:+|3pUTR|ENSG00000168280|msi1|FALSE|bound_elsewhere (ssRNA)
RNA: GGGAGUUCUACAGUCCGACGAUCGUAAAGUGUGUCCUGUGUACUGCAGAUGUGUGUUCUCUGGGCUUUAUGUAUCUGUACAGUAGCUUUCACAUUAAAAAAAUUGUGGACAAACUUGUCCGGGGGGUUUGAGGGGAGAAUGGUCAACAGAGGAUUGAGCAUCA
B4: chr1:37709127:37709197:+|3pUTR|ENSG00000134690|msi1_unk|FALSE|overlapping (ssRNA)
RNA: GGGAGUUCUACAGUCCGACGAUCUGAAGACCAAAUACUGGUUUGGAGACAACUUCCAUGUCUUGCUCUUCUACCUCCCUAGUUAGUGGAAAUUUGGAUAAGGGAACUGUAGGGCCCAGAUUCUGGAGGUUUUAUGUCAUUGGCCAACAGAGGAUUGAGCAUCA
B5: chr2:112646914:112647020:+|CDS|ENSG00000144136|unk|FALSE|unique (ssRNA)
RNA: GGGAGUUCUACAGUCCGACGAUCGCUCAUCCUGGGCUUCAUUAUUGCAUUUGUCUUGGCAUUCUCCGUGGGAGCCAAUGAUGUAGCAAAUUCUUUUGGUACAGCUGUGGGCUCAGGUGUAGUGACCCUGAAGCAAGCCUGCAUCAACAGAGGAUUGAGCAUCA
B6: chr11:92354873:92354974:+|CDS|ENSG00000165323|unk|FALSE|bound_elsewhere (ssRNA)
RNA: GGGAGUUCUACAGUCCGACGAUCGUCACUCUUAAAGUUUUUUUAGAUGAUGUCAAUGACUGCUCCCCAGCUUUCAUUCCCAGUAGCUAUAGUGUGAAGGUUCUUGAAGAUCUCCCUGUUGGCACUGUCAUUGCUUGGCUUGAGCAACAGAGGAUUGAGCAUCA
B7: chr3:15255350:15255451:-|3pUTR|ENSG00000131370|msi1|total|mutant (ssRNA)
RNA: GGGAGUUCUACAGUCCGACGAUCUGGGGUGGGAAAGGUGAAUGCCAGUGGGGAUGCGGGGGGAUGAGGGCCGGAGGGACUUACCGAAGGGGAUUUGUGGCUGUGGGGGAGAAGGUUCUACAGCAUAAGCCUUAUCCUGCCAGCCAACAGAGGAUUGAGCAUCA
B8: ENSG00000198589:be:win_4401|CDS|ENSG00000198589|bound_else_gene|NA|bound_elsewhere_windowed (ssRNA)
RNA: GGGAGUUCUACAGUCCGACGAUCGGGAGAUAAAGCCUUGAAACCAAUGCAUAGCCUUAUUCCUUUAGGGAAAUCUGCAGCGAAGAGCCCAGUGGACAUUGUGACUGGCGGUAUAUCUCCAGUAAGAGAUCUUGACAGGCUUCUCAACAGAGGAUUGAGCAUCA
B9: ENSG00000136451:be:win_4301|3pUTR|ENSG00000136451|bound_else_gene|NA|bound_elsewhere_windowed (ssRNA)
RNA: GGGAGUUCUACAGUCCGACGAUCCUCUAGGGCUCGCUGCUUGGCCUGCGUUUGCUUUUUAUUGUGUAUCCGUUCCCCUCCUACGGUGUGCUCCUGAAUGAAGGUUUCUAUGUAAGCAGAUGAUGAUUUUACCUGUCAAUACCACAACAGAGGAUUGAGCAUCA
B10: chr22:36488912:36489013:-|3pUTR|ENSG00000100350|msi1|FALSE|unique (ssRNA)
RNA: GGGAGUUCUACAGUCCGACGAUCCUAGUCUCUUCUUCAUUGCCCUUCCUCACCAGCAAUCUGCACUUUCCCAUCAGGCGUCUUAGUCUCAUUUGUAAGUGCAUAAGAUAAUCACAGUGAUUUUUCAAAGCCCAGGAUCAUAAGCAACAGAGGAUUGAGCAUCA
B11: chr22:20586770:20586871:+|3pUTR|ENSG00000099917|unk|FALSE|unique (ssRNA)
RNA: GGGAGUUCUACAGUCCGACGAUCACACGCCUCCUGUCAGACACUUCUAGGUGUUGGCUUCCUUAGAGAGCCUGGGGUUAGGUUAGCUUUCCUGCUUUUAUCUUCUGCCUUGGGGACCUGCCAAACGAAAUCCCACACCUGUACCAACAGAGGAUUGAGCAUCA
B12: chr1:36180537:36180567:+|3pUTR|ENSG00000116871|msi1_unk|total|mutant (ssRNA)
RNA: GGGAGUUCUACAGUCCGACGAUCCAUACACACAUAUACACUCACAGCCUCUCUGGCCUCUUCCCUUGGGGAGGGGCCACCUGCCGUAUUUGCCUUGAUUUGGUGGGGUACAGUGGAUGUGAAUACUGUAAACCGCUUGUGCUCCAACAGAGGAUUGAGCAUCA
B13: chr13:46334680:46343497:-|three_prime_utr|ENSG00000102445|control|control|control (ssRNA)
RNA: GGGAGUUCUACAGUCCGACGAUCGACUGUUCAACAUGCCUUAUGAUAACACCGAUUUGUGUCUAUUAUUGGUGACAUUGUUUUAGAUAUUGGGUAUUGUAUAUUAAGGAAAAAGAUGGUCUAUAUUCUCUUUAUUGCAUAUACCAACAGAGGAUUGAGCAUCA
B14: chr1:55154109:55154210:-|CDS|ENSG00000162402|msi1|total|mutant (ssRNA)
RNA: GGGAGUUCUACAGUCCGACGAUCCCUCCGUGAUGCAUAUGCAGUGAAAGAAGCAAUCAAGAGGAGCUACAUCAUCAAGUGCACCGAAGAUAUUAAGAGGGUUGGUUUCAGCUUUUAUCUGAUUUUGUUGUCCGAGCAACAGUACAACAGAGGAUUGAGCAUCA
B15: chrX:120627021:120627135:-|CDS|ENSG00000171155|unk|total|mutant (ssRNA)
RNA: GGGAGUUCUACAGUCCGACGAUCUUGAAGGGUGUGAUGCUUGGAAGCAUUUUCUGUGCUUUGAUCACUAUGCCCGGACACAUCCGGAUUGGUCAUGGAAACCGAAUGCACCACCAUGAGCAUCAUCACCUACAAGCUCCUAACCAACAGAGGAUUGAGCAUCA
B16: chr14:100884374:100884478:-|CDS|ENSG00000254656|unk|FALSE|unique (ssRNA)
RNA: GGGAGUUCUACAGUCCGACGAUCGAGGAGUCAUGCAACGGUUCACACCAGGCAAGGGGGGAUCCACUCAGUGGAGCAUCUGAUAGGAUGAAAGAAGCAUCAGUCAACCCAUCGGGAGCCCGAGAAGAACAAGAGGCUCACACUCAACAGAGGAUUGAGCAUCA
B17: chr18:9257137:9257239:+|CDS|ENSG00000101745|unk|total|mutant (ssRNA)
RNA: GGGAGUUCUACAGUCCGACGAUCUCUCCGGUCAUCUUCUGCCGAAGAUGUUAAACUAAUUAUAAGCGAGGGGAGACCUACCACCGAAGUUCGAAGAUGCCGCAUGCCUUCUGUCAUUUGUGAACAUACCAAACAAUUCCAAACCAACAGAGGAUUGAGCAUCA
B18: chr16:67175568:67175669:+|3pUTR|ENSG00000140939|msi1|FALSE|unique (ssRNA)
RNA: GGGAGUUCUACAGUCCGACGAUCUUAGAGCUCACAGCCUUGGGAAGUGAGACUAGAAGAGGGGAGCAGAAAGGGACCUUGAGUAGACAAAGGCCACACACAUCAUUGUCAUUACUGUUUUAAUUGUCUGGCUUCUCUCUGGACCAACAGAGGAUUGAGCAUCA
B19: chrX:154027874:154027956:-|3pUTR|ENSG00000169057|msi1_unk|total|mutant (ssRNA)
RNA: GGGAGUUCUACAGUCCGACGAUCUGGUCCGAAGUGAGGGAGUUUGCCCCGUUCUGUUUGCCGAGUCUCACCGUUGGACUUUCCCGCAUAUAUGUGUCCAUUUCCUUAUGCUGUAAAAGCAAGUCCUGCAACCAAACUCCCAUCCAACAGAGGAUUGAGCAUCA
B20: chr1:153626309:153626462:-|CDS|ENSG00000189171|unk|FALSE|unique (ssRNA)
RNA: GGGAGUUCUACAGUCCGACGAUCUCCAUUGAGACCGUGGUCACCACCUUCUUCACCUUUGCAAGGCAGGAGGGCCGGAAGGAUAGCCUCAGCGUCAACGAGUUCAAAGAGCUGGUUACCCAGCAGUUGCCCCAUCUGCUCAAGCAACAGAGGAUUGAGCAUCA
B21: chr14:22589090:22589186:-|5pUTR_CDS|ENSG00000129562|msi1_unk|FALSE|overlapping (ssRNA)
RNA: GGGAGUUCUACAGUCCGACGAUCUCCUCCAAGAGUUUGGGGCGCGGACCGGAGUACCUUGCGUGCAGUUAUGUCGGCGUCGGUAGUGUCUGUCAUUUCGCGGUUCUUAGAAGAGUACUUGAGCUCCACUCCGCAGCGUCUGAACAACAGAGGAUUGAGCAUCA
B22: chr2:135782819:135782876:+|CDS|ENSG00000144224|msi1_unk|total|mutant (ssRNA)
RNA: GGGAGUUCUACAGUCCGACGAUCGUGAGAAAAAGAGUGCUGGAAAAACGUGGAGACGACUUUAAAAAGGAGGGGAAAAUUUACCGAUUAAGGACUCAAGAUGAUGGUGAAGAUGAAAACAACACUUGGAAUGGAAAUUCCACUCAACAGAGGAUUGAGCAUCA

The assay addresses T1, UNK ZnF1-6 (called full-length). In words: nsRBNS (natural sequence RNA bind-n-seq); RBNS binding buffer (assumed for nsRBNS): 25 mM Tris pH 7.5, 150 mM KCl, 3 mM MgCl2, 0.01% Triton X-100, 500 ug/ml BSA, 20 U/ml SUPERase-In, 4 C; UNK is unkempt and MSI1 is Musashi-1; names of the RNAs are library labels; protein concentration not given here; high values mean tight binding.
B1 registered a binding signal of 0.599 enrichment R.
B2 registered a binding signal of 1.01 enrichment R.
With B3, the binding signal stood at 1.03 enrichment R.
Turning to B4, the binding signal came out at 1.1 enrichment R.
As for B5, the binding signal was determined as 0.776 enrichment R.
As to B6, the binding signal stood at 0.639 enrichment R.
For B7, the binding signal turned out to be 1.36 enrichment R.
For B8 the value was 0.697 enrichment R.
With B9, the binding signal came out at 0.492 enrichment R.
As for B10, the figure is 0.433 enrichment R; as for B11, 1.41 enrichment R; as for B12, 0.493 enrichment R.
As to B13, the binding signal came out at 0.812 enrichment R.
Molecule B14 yielded a binding signal of 0.508 enrichment R.
Take B15: the binding signal came out at 0.322 enrichment R.
Take B16: the binding signal came to 1.13 enrichment R.
In turn, B17 returned a binding signal of 0.458 enrichment R.
As for B18, the figure is 0.956 enrichment R; as for B19, 0.921 enrichment R.
In the case of B20, the binding signal was 0.514 enrichment R.
In turn, B21 registered a binding signal of 0.741 enrichment R.
As for B22, the figure is 0.715 enrichment R.
